Some of the results follow.
Assays:
Experiment in all cases: glycan array binding signal (z-score within array); higher = stronger binding
Conditions in all cases: glycan notation: IUPAC condensed, linker removed
[1] = biological target: Gal(b1-4)GlcNAc(b1-6)[Gal(b1-3)]GalNAc
How it was run: (§1)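 The binding signal is a Z-score computed within each array. Data were drawn from 3228 arrays in the Consortium for Functional Glycomics database, restricted to those with a known protein sequence. Scores were averaged over arrays of the same protein sequence at different concentrations or buffers, and over linkers, and negative values can be taken as non-binding.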

[2] = biological target: Gal(b1-4)GlcNAc(b1-6)[Gal(b1-3)]GlcNAc
How it was run: as §1

[3] = biological target: Gal(b1-4)GlcNAc(b1-6)[Gal(b1-4)GlcNAc(b1-3)]GalNAc
How it was run: as §1

Gal(b1-4)GlcNAc6P = biological target: Gal(b1-4)GlcNAc6P
How it was run: as §1

Gal(b1-6)Gal = biological target: Gal(b1-6)Gal
How it was run: as §1

Gal3S(b1-3)GalNAc = biological target: Gal3S(b1-3)GalNAc
How it was run: as §1

Gal3S(b1-3)GlcNAc = biological target: Gal3S(b1-3)GlcNAc
How it was run: as §1

[4] = biological target: Gal3S(b1-3)[Fuc(a1-4)]GlcNAc
How it was run: as §1

Gal3S(b1-4)Glc = biological target: Gal3S(b1-4)Glc
How it was run: as §1

Gal3S(b1-4)Glc6S = biological target: Gal3S(b1-4)Glc6S
How it was run: as §1

Gal3S(b1-4)GlcNAc = biological target: Gal3S(b1-4)GlcNAc
How it was run: as §1

Gal3S(b1-4)GlcNAc6S = biological target: Gal3S(b1-4)GlcNAc6S
How it was run: as §1

[5] = biological target: Gal3S(b1-4)[Fuc(a1-3)]Glc6S
How it was run: as §1

[6] = biological target: Gal3S(b1-4)[Fuc(a1-3)]GlcNAc
How it was run: as §1

[7] = biological target: Gal3S(b1-4)[Fuc(a1-3)]GlcNAc6S
How it was run: as §1

Gal3S4S(b1-4)GlcNAc = biological target: Gal3S4S(b1-4)GlcNAc
How it was run: as §1

Gal3S6S(b1-4)GlcNAc = biological target: Gal3S6S(b1-4)GlcNAc
How it was run: as §1

Gal3S6S(b1-4)GlcNAc6S = biological target: Gal3S6S(b1-4)GlcNAc6S
How it was run: as §1

Gal4S(b1-4)GlcNAc = biological target: Gal4S(b1-4)GlcNAc
How it was run: as §1

Gal4S6S(b1-4)GlcNAc = biological target: Gal4S6S(b1-4)GlcNAc
How it was run: as §1

Gal6P(b1-4)GlcNAc = biological target: Gal6P(b1-4)GlcNAc
How it was run: as §1

Gal6S(b1-3)GlcNAc = biological target: Gal6S(b1-3)GlcNAc
How it was run: as §1

Gal6S(b1-3)GlcNAc6S = biological target: Gal6S(b1-3)GlcNAc6S
How it was run: as §1

Gal6S(b1-4)Glc = biological target: Gal6S(b1-4)Glc
How it was run: as §1

Gal6S(b1-4)Glc6S = biological target: Gal6S(b1-4)Glc6S
How it was run: as §1

Gal6S(b1-4)GlcNAc = biological target: Gal6S(b1-4)GlcNAc
How it was run: as §1

Gal6S(b1-4)GlcNAc6S = biological target: Gal6S(b1-4)GlcNAc6S
How it was run: as §1

GalNAc(a1-3)Gal = biological target: GalNAc(a1-3)Gal
How it was run: as §1

GalNAc(a1-3)GalNAc = biological target: GalNAc(a1-3)GalNAc
How it was run: as §1

[8] = biological target: GalNAc(a1-3)GalNAc(b1-3)Gal(a1-4)Gal(b1-4)Glc
How it was run: as §1

[9] = biological target: GalNAc(a1-3)GalNAc(b1-3)Gal(a1-4)Gal(b1-4)GlcNAc
How it was run: as §1

GalNAc(b1-3)Gal = biological target: GalNAc(b1-3)Gal
How it was run: as §1

[10] = biological target: GalNAc(b1-3)Gal(a1-4)Gal(b1-4)GlcNAc
How it was run: as §1

[11] = biological target: GalNAc(b1-3)Gal(a1-4)Gal(b1-4)GlcNAc(b1-3)Gal(b1-4)Glc
How it was run: as §1

[12] = biological target: GalNAc(b1-3)Gal(a1-6)Gal(b1-4)Glc
How it was run: as §1

GalNAc(b1-3)GalNAc = biological target: GalNAc(b1-3)GalNAc
How it was run: as §1

GalNAc(b1-3)GlcNAc = biological target: GalNAc(b1-3)GlcNAc
How it was run: as §1

GalNAc(b1-4)Gal(b1-4)Glc = biological target: GalNAc(b1-4)Gal(b1-4)Glc
How it was run: as §1

GalNAc(b1-4)GlcNAc = biological target: GalNAc(b1-4)GlcNAc
How it was run: as §1

[13] = biological target: GalNAc(b1-4)GlcNAc(b1-2)Man
How it was run: as §1

[14] = biological target: GalNAc(b1-4)GlcNAc(b1-2)Man(a1-3)[GalNAc(b1-4)GlcNAc(b1-2)Man(a1-6)]Man(b1-4)GlcNAc(b1-4)GlcNAc
How it was run: as §1

[15] = biological target: GalNAc(b1-4)GlcNAc(b1-3)GalNAc(b1-4)GlcNAc
How it was run: as §1

GalNAc(b1-4)GlcNAc6S = biological target: GalNAc(b1-4)GlcNAc6S
How it was run: as §1

GalNAc(b1-6)GalNAc = biological target: GalNAc(b1-6)GalNAc
How it was run: as §1

GalNAc3S(b1-4)GlcNAc = biological target: GalNAc3S(b1-4)GlcNAc
How it was run: as §1

B1: OVGAL11 (Ovis aries), AAF64320 (protein)
chain: MDSLPNPYLQSVSLTVCYMVKIKANLLSAFGKNPELQVDFGTGTGQGGNIPFRFWYCDGMVVMNTFTDGSWQKEEKVLTDAFVPGQPFELQFLVLEKEYQVFVKNKPICQFAHRLPLQSVKMLDVRGDIVLTSVDTL
glycan array binding signal (z-score) [1]: -0.171 | glycan array binding signal (z-score) [2]: -0.588 | glycan array binding signal (z-score) [3]: -0.094 | glycan array binding signal (z-score) (Gal(b1-4)GlcNAc6P): -0.062 | glycan array binding signal (z-score) (Gal(b1-6)Gal): -0.128 | glycan array binding signal (z-score) (Gal3S(b1-3)GalNAc): 0.01 | glycan array binding signal (z-score) (Gal3S(b1-3)GlcNAc): -0.154 | glycan array binding signal (z-score) [4]: -0.035 | glycan array binding signal (z-score) (Gal3S(b1-4)Glc): 0.199 | glycan array binding signal (z-score) (Gal3S(b1-4)Glc6S): 0.138 | glycan array binding signal (z-score) (Gal3S(b1-4)GlcNAc): -0.068 | glycan array binding signal (z-score) (Gal3S(b1-4)GlcNAc6S): 0.039 | glycan array binding signal (z-score) [5]: -0.062 | glycan array binding signal (z-score) [6]: 0.033 | glycan array binding signal (z-score) [7]: -0.057 | glycan array binding signal (z-score) (Gal3S4S(b1-4)GlcNAc): -0.092 | glycan array binding signal (z-score) (Gal3S6S(b1-4)GlcNAc): -0.175 | glycan array binding signal (z-score) (Gal3S6S(b1-4)GlcNAc6S): 0.724 | glycan array binding signal (z-score) (Gal4S(b1-4)GlcNAc): -0.142 | glycan array binding signal (z-score) (Gal4S6S(b1-4)GlcNAc): -0.237 | glycan array binding signal (z-score) (Gal6P(b1-4)GlcNAc): -0.07 | glycan array binding signal (z-score) (Gal6S(b1-3)GlcNAc): -0.086 | glycan array binding signal (z-score) (Gal6S(b1-3)GlcNAc6S): -0.103 | glycan array binding signal (z-score) (Gal6S(b1-4)Glc): -0.139 | glycan array binding signal (z-score) (Gal6S(b1-4)Glc6S): -0.207 | glycan array binding signal (z-score) (Gal6S(b1-4)GlcNAc): 0.165 | glycan array binding signal (z-score) (Gal6S(b1-4)GlcNAc6S): -0.068 | glycan array binding signal (z-score) (GalNAc(a1-3)Gal): 0.164 | glycan array binding signal (z-score) (GalNAc(a1-3)GalNAc): -0.154 | glycan array binding signal (z-score) [8]: -0.113 | glycan array binding signal (z-score) [9]: -0.056 | glycan array binding signal (z-score) (GalNAc(b1-3)Gal): -0.128 | glycan array binding signal (z-score) [10]: -0.18 | glycan array binding signal (z-score) [11]: -0.092 | glycan array binding signal (z-score) [12]: -0.08 | glycan array binding signal (z-score) (GalNAc(b1-3)GalNAc): -0.082 | glycan array binding signal (z-score) (GalNAc(b1-3)GlcNAc): -0.086 | glycan array binding signal (z-score) (GalNAc(b1-4)Gal(b1-4)Glc): -0.071 | glycan array binding signal (z-score) (GalNAc(b1-4)GlcNAc): -0.161 | glycan array binding signal (z-score) [13]: -0.134 | glycan array binding signal (z-score) [14]: 0.024 | glycan array binding signal (z-score) [15]: -0.099 | glycan array binding signal (z-score) (GalNAc(b1-4)GlcNAc6S): -0.038 | glycan array binding signal (z-score) (GalNAc(b1-6)GalNAc): -0.114 | glycan array binding signal (z-score) (GalNAc3S(b1-4)GlcNAc): -0.102

— the supplement of paper PMC8728848
